Hit rate of the full screen: of about 310,000 compounds, about 14,000 (4.5%) showed an effect of 50% or more. Effects have a minus sign here. Some of the results follow.
target: human ether-à-go-go-related gene (hERG) potassium channel (human, UniProt Q12809); test: primary screen, population patch clamp on CHO cells stably expressing hERG
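Note: peak tail current of the secondary pulse compared with the same well before compound.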

Chain of human ether-à-go-go-related gene (hERG) potassium channel (Q12809 whole entry, looked up): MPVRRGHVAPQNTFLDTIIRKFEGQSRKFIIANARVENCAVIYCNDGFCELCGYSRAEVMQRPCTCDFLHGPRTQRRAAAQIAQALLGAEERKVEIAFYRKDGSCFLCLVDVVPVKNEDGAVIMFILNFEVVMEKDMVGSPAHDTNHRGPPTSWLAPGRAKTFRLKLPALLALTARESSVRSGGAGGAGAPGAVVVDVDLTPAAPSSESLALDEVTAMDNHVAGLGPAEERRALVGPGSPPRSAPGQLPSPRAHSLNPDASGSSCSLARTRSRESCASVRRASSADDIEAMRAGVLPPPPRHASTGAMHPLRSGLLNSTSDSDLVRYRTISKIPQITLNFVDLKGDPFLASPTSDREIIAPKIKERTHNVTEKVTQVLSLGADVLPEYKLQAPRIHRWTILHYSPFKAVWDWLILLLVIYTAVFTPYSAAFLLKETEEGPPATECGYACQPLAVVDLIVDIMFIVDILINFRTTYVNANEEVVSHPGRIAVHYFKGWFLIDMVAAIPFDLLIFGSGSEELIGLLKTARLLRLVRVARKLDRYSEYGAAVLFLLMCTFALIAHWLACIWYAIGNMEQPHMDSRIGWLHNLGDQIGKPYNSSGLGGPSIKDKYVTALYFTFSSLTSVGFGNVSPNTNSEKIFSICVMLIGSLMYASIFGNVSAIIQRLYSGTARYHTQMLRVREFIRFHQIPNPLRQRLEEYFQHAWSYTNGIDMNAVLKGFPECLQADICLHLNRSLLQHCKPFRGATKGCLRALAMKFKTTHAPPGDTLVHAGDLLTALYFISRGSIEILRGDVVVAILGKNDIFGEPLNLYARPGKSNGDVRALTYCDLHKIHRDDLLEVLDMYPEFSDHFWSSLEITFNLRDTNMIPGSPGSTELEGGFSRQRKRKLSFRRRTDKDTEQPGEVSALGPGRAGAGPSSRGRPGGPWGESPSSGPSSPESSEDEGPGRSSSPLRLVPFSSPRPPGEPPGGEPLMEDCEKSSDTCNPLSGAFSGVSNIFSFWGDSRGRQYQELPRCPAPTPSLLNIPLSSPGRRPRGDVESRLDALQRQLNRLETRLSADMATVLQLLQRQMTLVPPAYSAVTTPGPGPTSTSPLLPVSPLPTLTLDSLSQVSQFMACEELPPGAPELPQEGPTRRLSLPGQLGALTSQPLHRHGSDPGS

SMILES | hERG current change (%, negative = inhibition) at 10uM
COc1ccccc1CNCC(=O)Nc1ccc(C#N)cc1.O=C(O)C(=O)O | -21.5%
COc1ccc(/C=C2\CCn3c2nc2cc(C(=O)O)ccc2c3=O)cc1 | 9.07%
CCc1noc(C)c1C(=O)N1CCCC1 | 7.15%
COc1ccc(C(=O)C2CCCN(S(=O)(=O)c3ccccc3F)C2)c(C)c1 (stereo not shown) | 9.1%
COCc1cc(C)nc2sc(C(=O)NN)c(-n3cccc3)c12 | 11.2%
Cc1ccc(Oc2ccc(Cl)cc2N)cc1 | 15%
FC(F)(F)Oc1ccc(Nc2nc3ccccc3o2)cc1 | 9.61%
Cc1ccccc1OCC(=O)Nc1ccc(N2CCOCC2)cc1N1CCOCC1 | -32%
O=C(NCc1ccc2c(c1)OCO2)c1ccc(CS(=O)(=O)c2ccc(Br)cc2)o1 | -4.76%
C=CCN1CC(c2nc3ccccc3n2Cc2cccc3ccccc23)CC1=O (stereo not shown) | -24.2%
CCCCn1c(N)c(N(CC(C)C)C(=O)C2CC(=O)N(c3ccccc3C(C)CC)C2)c(=O)[nH]c1=O (stereo not shown) | 1.96%
Cc1ccc(NC(=O)COc2ccc(N(C)S(=O)(=O)c3ccc(F)cc3)cc2)cc1 | -0.724%
Cc1cc(C)n2nc(S(=O)(=O)N(CC(C)C)CC(C)C)nc2n1 | 3.63%
Cc1c(NC(=O)Cn2nc(C(F)(F)F)c3c2CCCC3)c(=O)n(-c2ccccc2)n1C | 2.81%
CN(C)C1=NC[C@H](Cc2ccccc2)N1CCC1CCCC1 | -43.5%
COc1ccc2oc(C(=O)OCC(=O)N(C)C3CCCCC3)c(C)c2c1 | -22.9%
Nc1nc(SCc2nc(-c3ccccc3)no2)[nH]c(=O)c1-c1ccccc1 | -39.9%
CCOC(=O)c1ccc(S(=O)(=O)N2CCN(CC(=O)NC(=O)NC3CCCCC3)CC2)cc1 | -38.8%
COc1ccccc1NC(=O)c1ccc(-c2nn(C)c(=O)c3ccccc23)cc1 | -25.8%
Cc1oc2c(C)c3oc(=O)c(CCC(=O)NCCCN4CCCC4=O)c(C)c3cc2c1C | -14.8%
COC(=O)c1cc(C#N)c(NCc2ccc(Cl)cc2Cl)nc1C | -9.15%
CC1(O)C(=O)C=C2C=C(C3CC3)OC=C2C1=O (stereo not shown) | 16.8%

SMILES | hERG current change (%, negative = inhibition) at 10uM
CCOC(=O)c1ccc(S(=O)(=O)Nc2nc3cc(S(=O)(=O)NC4=NCCCCC4)ccc3s2)cc1 | 1.17%
COc1ccc(CCNC(=O)C23CCC(C)(C(=O)C2=O)C3(C)C)cc1OC (stereo not shown) | 11.1%
Cc1ccccc1NC(=O)c1cccc(Cn2cc(Br)c([N+](=O)[O-])n2)c1 | -3.63%
O=C(O)C(F)(F)F.O=C1C(Cc2ccccc2)Nc2ncnc(N3CCN(c4ccccc4)CC3)c2N1Cc1ccc(Cl)cc1 (stereo not shown) | 0.92%
CC1CC(C)CN(c2nc3c(c(=O)n(C)c(=O)n3C)n2C)C1 (stereo not shown) | 1.37%
CC(=O)c1ccccc1NCC(=O)Nc1ccc(C)cc1 | 10.4%
O=C(Nc1ccc2c(c1)OCCO2)N1CCOCC1 | 19.3%
CCOc1ccc(/C=N/NC(=O)c2ccoc2C)cc1OC | -3.42%
O=C(O)c1cc(N2C(=O)CCC2=O)ccc1NCc1cccnc1 | 14.4%
Cc1[nH]n(-c2ccccc2)c(=O)c1C1(C(F)(F)F)C(=O)N(c2ccc(F)cc2)C2=C1C(=O)CC(C)(C)C2 (stereo not shown) | 11.8%
CN(C)c1ccc(P(=S)(N(C)C)N(C)C)cc1 | 7.91%
Cc1ccc(NC(=O)CCC(=O)NNC(=O)c2cccc([N+](=O)[O-])c2)cc1C | -3.39%
CCOc1cc(/C=C2\SC(=S)N(NS(=O)(=O)c3ccccc3)C2=O)ccc1O | 8.33%
COc1cccc(-c2c(C(=O)N/N=C/c3ccc(C)o3)nnn2-c2nonc2N)c1 | -4.96%
O=C(Cn1c(SCC(=O)N2CCc3ccccc32)nc2ccccc21)NC1CCCC1 | 19.5%
O=C(OCN1C(=O)c2ccccc2C1=O)C1CCCCC1 | 5.15%
CCOc1cc(CNCCSc2nnnn2C)cc(Br)c1OCc1ccccc1.Cl | -23.1%
COc1ccccc1N1CCN(CC(=O)c2c(N)n(C)c(=O)n(C)c2=O)CC1 | -14.7%
CSCC[C@H](NC(=O)OC(C)(C)C)C(=O)N1CCC(C(=O)N[C@@H](Cc2c[nH]c3ccccc23)C(=O)O)CC1 | 25.9%
Cc1cnc(C(=O)OCC(=O)c2cc(C)n(C)c2C)cn1 | 10.5%
COc1ccc(CNC(=O)[C@H](C)NC(=O)C2CCN(C(=O)[C@@H](N)Cc3ccccc3)CC2)cc1 | 3.52%
COc1ccccc1NC(=O)N1CCCC1C(=O)Nc1ccc2c(c1)OCCO2 (stereo not shown) | -5.77%

SMILES | hERG current change (%, negative = inhibition) at 10uM
N[C@@H](CCC(=O)N[C@@H](CSN=O)C(=O)NCC(=O)O)C(=O)O | -8.65%
N#Cc1c(/N=C\c2ccc(O)c([N+](=O)[O-])c2)sc2c1CCCC2 | 15.8%
Cc1nn(CC(=O)Nc2ccccn2)c(=O)c2ccccc12 | 0.386%
CC(=O)Nc1ccc(-c2csc(-c3cccnc3)n2)cc1 | 3.98%
CCCCSc1nnc2n(CCc3ccccc3)c(=O)c3c4c(sc3n12)COC(C)(C)C4 | 7.19%
CC(=O)NC1C(Oc2ccc(C=O)cc2)OC(COC(C)=O)C(OC(C)=O)C1OC(C)=O (stereo not shown) | 25.7%
CCOC(=O)c1sc(NC(=S)NC(=O)C23CC4CC(CC(C4)C2)C3)cc1C | 20.2%
O=C(Cc1cccs1)N1CCC(c2nc3c(nnn3Cc3ccccc3Cl)c(=O)[nH]2)CC1 | -41.7%
CC(C)CCSc1nc2ccccc2[nH]1 | 15.9%
Cc1cc(S(=O)(=O)NCc2ccccc2)ccc1OCC(=O)N1CCOCC1 | 2.83%
Cc1cccc(C)c1NC(=O)CN(C)C(=O)[C@H](C)NC(=O)c1ccco1 | 20.3%
Cc1oc(-c2ccccc2)nc1CS(=O)CC(=O)N1CCc2ccccc2C1 (stereo not shown) | -20.5%
O=S(=O)(Nc1ccncc1Cl)c1ccc2ccccc2c1 | 9.75%
Cc1nc2ccccn2c1C(=O)c1ccccc1 | -10.6%
O=C(O)c1ccc(N/N=C/c2cn(-c3ccccc3)nc2-c2cccs2)cc1 | 8.65%
N#Cc1ccc(-c2ccc(OCC3CNC(=O)O3)cc2)cc1 (stereo not shown) | -1.13%
CCN(c1ccccc1C)S(=O)(=O)c1nnc(NC(=O)c2ccco2)s1 | 8.53%
COc1ccc(N/C(C)=C2/C(=O)C(=O)N(CCO)C2c2ccc(Br)cc2)cc1 (stereo not shown) | -49%
Oc1ccc(NCc2ccccc2OCc2ccccc2)cc1 | -15.1%
CCN(CC)C(=O)CN(C#N)c1nc(Cl)nc(N(C)C)n1 | 16.1%
COc1ccc([N+](=O)[O-])c2c(=O)ccoc12 | -14.5%
Nc1nc(SCC(=O)Nc2ccc([N+](=O)[O-])cc2)[nH]c(=O)c1NC(=O)c1ccc(Br)cc1 | 13.5%

SMILES | hERG current change (%, negative = inhibition) at 10uM
CCN(CC)c1ccc(C=Nc2cc(C)ccc2C)c(O)c1 | 7.25%
CCC(=O)n1nc(-c2ccccc2)nc1NCc1ccccc1 | 10.9%
CN(C)CCN1C(=O)C(=O)/C(=C(/O)c2ccc(S(=O)(=O)N3CCOCC3)cc2)C1c1ccc(F)cc1 (stereo not shown) | -4.56%
COc1ccc(-c2cc(C(=O)Nc3cccc(O)c3)no2)cc1 | 20.3%
CC1Cc2ccccc2N1S(=O)(=O)c1cccc(C(=O)NCCCn2ccnc2)c1 (stereo not shown) | -50.1%
CCCCCN1CC(=O)N2[C@@H](Cc3c([nH]c4ccccc34)C2(C)C)C1=O | 30%
Cc1ccc(C(C)NC(=O)c2c(-c3ccccc3)noc2C)cc1C (stereo not shown) | 16%
COC(=O)c1cccc(NC(=O)NC(=O)c2ccc(Cl)cc2)c1 | 6.23%
CCOC(=O)C1CCN(C(=O)COc2ccc([N+](=O)[O-])cc2)CC1 | -60.8%
Cc1ccc(OCCCN2CCCC2)c(C)c1.O=C(O)C(=O)O | -27.2%
O=C(Nc1ccc(CN2CCOCC2)cc1)c1ccc(-c2cccc([N+](=O)[O-])c2)o1 | -48.3%
CCOc1ccc(NS(=O)(=O)c2cc(C(=O)N3CCCC3)ccc2Cl)cc1 | -44.1%
Cc1ccc(-n2c(Cc3cccn3C)nnc2SCC(=O)NCc2ccco2)cc1 | -11.4%
CCOc1cccc(C=Nc2cc(C)cc(C)c2O)c1O | -1.6%
O=C(CN1C(=O)CCSc2ccccc21)N1CCC2(CC1)OCCO2 | -0.232%
COc1cccc(/C=N/NC(=O)CN2C(=O)NC3NC(=O)NC32)c1 (stereo not shown) | 6.65%
Cc1ccc(/C=C2/NC(=O)N(Cc3ccccc3F)C2=O)o1 | -3.35%
COc1ccc(/C=N\NC(=O)COc2ccccc2Cl)cc1Cn1nc(C)cc1C | 8.15%
O=C(O)c1ccc(Cl)c(NC(=O)C2CCCN2S(=O)(=O)c2cccc3nsnc23)c1 (stereo not shown) | 4.38%
